Results from PMC5129914.
These are yes or no findings as the source states them, for the method shown. In cells and extracts the contact can be indirect. Some entries that bind do so weakly or less than the wild type.

The chains behind the UniProt entries cited, without tags or fusion partners. Where a name states a change or a piece, a line headed by the entry shows the natural chain unless it says otherwise. A line that says so, or that is headed by a name, gives the form on record, which may keep a tag or linker. Residues count along the entry.
UniProt Q96EB6: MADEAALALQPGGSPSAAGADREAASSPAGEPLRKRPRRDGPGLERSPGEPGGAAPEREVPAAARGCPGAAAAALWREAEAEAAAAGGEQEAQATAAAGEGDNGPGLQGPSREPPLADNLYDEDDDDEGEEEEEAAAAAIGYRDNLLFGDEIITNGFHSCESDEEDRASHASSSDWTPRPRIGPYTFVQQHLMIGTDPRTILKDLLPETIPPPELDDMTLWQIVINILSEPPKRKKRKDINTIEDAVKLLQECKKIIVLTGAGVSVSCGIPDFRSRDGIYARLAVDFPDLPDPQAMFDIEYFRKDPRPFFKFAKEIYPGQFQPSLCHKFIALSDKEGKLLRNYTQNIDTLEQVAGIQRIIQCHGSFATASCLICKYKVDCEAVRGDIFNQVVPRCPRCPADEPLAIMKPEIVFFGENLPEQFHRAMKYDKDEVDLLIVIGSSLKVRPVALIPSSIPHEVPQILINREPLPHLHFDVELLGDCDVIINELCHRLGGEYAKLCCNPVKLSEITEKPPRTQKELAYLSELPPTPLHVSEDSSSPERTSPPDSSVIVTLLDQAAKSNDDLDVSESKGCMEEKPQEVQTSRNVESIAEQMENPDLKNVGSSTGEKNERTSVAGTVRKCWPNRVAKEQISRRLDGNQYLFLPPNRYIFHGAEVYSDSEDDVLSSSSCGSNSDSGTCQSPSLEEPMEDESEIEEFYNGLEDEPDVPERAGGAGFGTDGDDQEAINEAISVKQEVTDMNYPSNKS
truncated FLAG-tagged human SIRT1 lacking 105 amino acids at the amino-terminus (∆SIRT1-FLAG): residues 106-747 of Q96EB6
UniProt O95714: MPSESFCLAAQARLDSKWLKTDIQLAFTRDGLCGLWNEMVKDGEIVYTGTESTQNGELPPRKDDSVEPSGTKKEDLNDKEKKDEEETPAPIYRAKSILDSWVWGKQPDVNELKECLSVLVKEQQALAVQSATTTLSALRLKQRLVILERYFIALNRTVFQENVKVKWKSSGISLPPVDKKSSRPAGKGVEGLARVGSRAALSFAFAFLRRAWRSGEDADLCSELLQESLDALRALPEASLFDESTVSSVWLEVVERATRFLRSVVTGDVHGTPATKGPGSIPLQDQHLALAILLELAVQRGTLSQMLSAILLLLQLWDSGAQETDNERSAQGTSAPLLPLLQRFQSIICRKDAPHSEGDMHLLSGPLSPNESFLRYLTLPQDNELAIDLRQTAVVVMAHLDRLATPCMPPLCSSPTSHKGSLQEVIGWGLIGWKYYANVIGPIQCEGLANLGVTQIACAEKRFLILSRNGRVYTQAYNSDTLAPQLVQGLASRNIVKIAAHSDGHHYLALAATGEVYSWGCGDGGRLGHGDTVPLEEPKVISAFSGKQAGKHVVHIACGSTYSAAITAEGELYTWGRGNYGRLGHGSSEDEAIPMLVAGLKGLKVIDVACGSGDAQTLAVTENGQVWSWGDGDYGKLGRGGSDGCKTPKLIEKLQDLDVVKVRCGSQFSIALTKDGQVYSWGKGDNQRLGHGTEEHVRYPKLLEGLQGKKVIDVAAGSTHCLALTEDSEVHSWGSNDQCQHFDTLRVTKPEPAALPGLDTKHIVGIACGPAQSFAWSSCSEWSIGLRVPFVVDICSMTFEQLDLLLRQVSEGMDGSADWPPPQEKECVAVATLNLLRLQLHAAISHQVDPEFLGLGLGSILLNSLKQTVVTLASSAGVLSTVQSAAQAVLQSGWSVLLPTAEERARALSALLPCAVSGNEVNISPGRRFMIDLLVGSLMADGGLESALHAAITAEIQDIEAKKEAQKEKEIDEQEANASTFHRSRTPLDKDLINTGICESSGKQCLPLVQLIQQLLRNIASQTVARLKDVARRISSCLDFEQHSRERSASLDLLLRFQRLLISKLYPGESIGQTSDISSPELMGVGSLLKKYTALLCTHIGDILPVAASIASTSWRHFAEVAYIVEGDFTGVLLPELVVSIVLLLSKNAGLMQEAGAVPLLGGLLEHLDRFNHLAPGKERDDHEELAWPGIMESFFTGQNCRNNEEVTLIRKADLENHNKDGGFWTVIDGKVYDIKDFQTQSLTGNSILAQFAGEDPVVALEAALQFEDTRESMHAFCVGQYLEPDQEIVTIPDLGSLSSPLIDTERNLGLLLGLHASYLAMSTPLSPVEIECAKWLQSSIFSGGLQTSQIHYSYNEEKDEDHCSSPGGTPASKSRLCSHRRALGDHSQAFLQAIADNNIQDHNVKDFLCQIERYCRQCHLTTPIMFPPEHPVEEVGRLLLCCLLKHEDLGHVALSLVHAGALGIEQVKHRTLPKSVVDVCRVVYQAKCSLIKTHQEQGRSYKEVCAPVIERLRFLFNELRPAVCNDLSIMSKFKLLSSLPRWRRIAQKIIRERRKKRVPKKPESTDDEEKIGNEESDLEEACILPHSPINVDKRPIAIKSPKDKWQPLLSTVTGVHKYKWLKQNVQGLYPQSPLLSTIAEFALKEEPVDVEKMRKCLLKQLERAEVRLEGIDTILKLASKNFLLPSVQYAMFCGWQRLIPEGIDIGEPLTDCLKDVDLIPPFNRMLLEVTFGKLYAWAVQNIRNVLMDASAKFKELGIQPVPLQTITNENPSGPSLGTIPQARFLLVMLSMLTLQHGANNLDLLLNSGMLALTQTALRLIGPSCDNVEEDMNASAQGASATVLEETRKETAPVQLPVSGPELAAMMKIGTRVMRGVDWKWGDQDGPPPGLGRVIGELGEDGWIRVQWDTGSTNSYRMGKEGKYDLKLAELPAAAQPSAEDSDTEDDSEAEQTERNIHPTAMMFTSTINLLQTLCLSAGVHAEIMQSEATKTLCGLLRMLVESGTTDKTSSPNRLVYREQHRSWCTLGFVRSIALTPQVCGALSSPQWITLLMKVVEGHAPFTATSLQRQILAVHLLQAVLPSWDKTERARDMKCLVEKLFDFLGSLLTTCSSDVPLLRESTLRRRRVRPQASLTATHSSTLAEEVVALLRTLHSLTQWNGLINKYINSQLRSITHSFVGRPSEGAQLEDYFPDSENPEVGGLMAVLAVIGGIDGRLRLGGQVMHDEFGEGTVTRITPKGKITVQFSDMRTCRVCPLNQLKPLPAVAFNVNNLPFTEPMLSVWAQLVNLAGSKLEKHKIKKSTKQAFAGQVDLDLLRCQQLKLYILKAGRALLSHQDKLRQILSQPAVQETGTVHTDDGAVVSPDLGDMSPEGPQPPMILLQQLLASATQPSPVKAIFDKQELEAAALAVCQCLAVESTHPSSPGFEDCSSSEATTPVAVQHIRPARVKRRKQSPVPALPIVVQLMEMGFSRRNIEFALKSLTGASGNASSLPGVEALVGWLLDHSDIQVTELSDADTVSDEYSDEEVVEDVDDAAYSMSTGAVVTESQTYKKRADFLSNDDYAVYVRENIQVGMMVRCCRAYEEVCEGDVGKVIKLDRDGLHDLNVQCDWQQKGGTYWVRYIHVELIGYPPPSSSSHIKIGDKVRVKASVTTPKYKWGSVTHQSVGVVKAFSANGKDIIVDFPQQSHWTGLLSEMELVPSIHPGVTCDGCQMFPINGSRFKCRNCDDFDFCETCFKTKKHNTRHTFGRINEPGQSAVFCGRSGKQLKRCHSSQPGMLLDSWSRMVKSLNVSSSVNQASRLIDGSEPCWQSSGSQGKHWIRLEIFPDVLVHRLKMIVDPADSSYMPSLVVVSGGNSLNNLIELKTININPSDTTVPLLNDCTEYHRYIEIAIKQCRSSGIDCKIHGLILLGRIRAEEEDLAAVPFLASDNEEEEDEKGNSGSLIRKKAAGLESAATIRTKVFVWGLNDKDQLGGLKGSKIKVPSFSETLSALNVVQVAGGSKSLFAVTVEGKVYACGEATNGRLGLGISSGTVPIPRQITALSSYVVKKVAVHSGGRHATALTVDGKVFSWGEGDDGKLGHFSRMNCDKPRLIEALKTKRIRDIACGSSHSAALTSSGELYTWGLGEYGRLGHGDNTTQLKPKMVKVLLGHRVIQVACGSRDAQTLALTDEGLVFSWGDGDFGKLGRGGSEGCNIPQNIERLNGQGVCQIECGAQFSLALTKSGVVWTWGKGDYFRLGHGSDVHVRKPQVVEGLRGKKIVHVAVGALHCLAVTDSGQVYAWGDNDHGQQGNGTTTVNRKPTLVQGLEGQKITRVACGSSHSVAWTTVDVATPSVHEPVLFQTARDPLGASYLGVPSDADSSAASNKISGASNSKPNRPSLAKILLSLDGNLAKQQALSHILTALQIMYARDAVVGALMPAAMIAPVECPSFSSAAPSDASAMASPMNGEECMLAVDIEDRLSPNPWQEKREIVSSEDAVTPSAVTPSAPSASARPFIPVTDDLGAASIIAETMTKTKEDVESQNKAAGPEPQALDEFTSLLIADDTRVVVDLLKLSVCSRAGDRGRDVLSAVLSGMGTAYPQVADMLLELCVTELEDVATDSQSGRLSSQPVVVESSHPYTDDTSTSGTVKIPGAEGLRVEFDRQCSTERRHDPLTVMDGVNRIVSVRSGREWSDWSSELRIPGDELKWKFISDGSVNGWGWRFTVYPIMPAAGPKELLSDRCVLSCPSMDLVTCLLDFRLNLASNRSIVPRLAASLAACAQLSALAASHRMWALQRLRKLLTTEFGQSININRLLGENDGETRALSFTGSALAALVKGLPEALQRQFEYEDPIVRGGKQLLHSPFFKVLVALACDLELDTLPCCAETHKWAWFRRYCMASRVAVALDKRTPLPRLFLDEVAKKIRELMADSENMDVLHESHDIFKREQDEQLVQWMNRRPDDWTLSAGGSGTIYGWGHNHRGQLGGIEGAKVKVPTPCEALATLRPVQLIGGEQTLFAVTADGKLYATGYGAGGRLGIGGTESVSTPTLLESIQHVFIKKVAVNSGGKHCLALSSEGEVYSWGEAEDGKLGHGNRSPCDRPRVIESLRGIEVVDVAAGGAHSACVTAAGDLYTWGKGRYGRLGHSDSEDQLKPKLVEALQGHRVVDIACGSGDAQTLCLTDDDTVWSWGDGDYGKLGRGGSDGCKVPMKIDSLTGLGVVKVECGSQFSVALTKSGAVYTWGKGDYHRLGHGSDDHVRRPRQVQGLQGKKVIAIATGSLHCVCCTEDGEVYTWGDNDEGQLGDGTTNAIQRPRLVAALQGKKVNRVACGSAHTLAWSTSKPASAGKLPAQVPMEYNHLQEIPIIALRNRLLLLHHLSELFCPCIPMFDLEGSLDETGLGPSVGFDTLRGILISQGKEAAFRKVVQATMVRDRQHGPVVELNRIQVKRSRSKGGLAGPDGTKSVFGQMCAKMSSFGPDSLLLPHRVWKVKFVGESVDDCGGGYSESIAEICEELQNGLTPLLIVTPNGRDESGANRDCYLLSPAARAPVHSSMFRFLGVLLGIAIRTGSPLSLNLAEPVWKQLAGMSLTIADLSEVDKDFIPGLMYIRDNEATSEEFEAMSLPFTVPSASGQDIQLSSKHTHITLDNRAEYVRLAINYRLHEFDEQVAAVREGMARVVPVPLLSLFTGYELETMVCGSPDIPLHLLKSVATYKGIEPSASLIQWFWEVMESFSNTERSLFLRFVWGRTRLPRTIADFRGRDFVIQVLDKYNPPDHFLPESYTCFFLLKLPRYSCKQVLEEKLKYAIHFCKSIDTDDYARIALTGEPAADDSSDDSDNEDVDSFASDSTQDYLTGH
HERC2-NH2 (amino-terminus of human HERC2, residues 1-199, fusion protein with glutathione S-transferase): residues 1-199 of O95714
HERC2-CPH (CPH domain of human HERC2, residues 2547-2640, fusion protein with glutathione S-transferase): residues 2547-2640 of O95714

Tests used:
[1] = molecular target: SIRT1 (endogenous, human umbilical vein endothelial cells) (human (endogenous in HUVEC)) (UniProt Q96EB6); test: co-IP; HUVEC (Supplementary Figure 2A and 2B); nuclear and cytosolic compartments
[2] = molecular target: truncated FLAG-tagged human SIRT1 lacking 105 amino acids at the amino-terminus (∆SIRT1-FLAG) (human) (UniProt Q96EB6); test: co-IP; full-length SIRT1 against truncated SIRT1 lacking the amino-terminal 105 residues; Supplementary Figure 5C; cells and antibodies not told (the abstract names co-immunoprecipitation)
[3] = molecular target: full-length SIRT1 (overexpressed, compared with the truncated form) (human) (UniProt Q96EB6); test: as above
[4] = molecular target: SIRT1 (endogenous, HEK293 cells) (human (endogenous in HEK293)) (UniProt Q96EB6); test: co-IP; lysates of cells transfected with HERC2 sub-domains; anti-SIRT1 antibodies; sub-domains detected with an anti-FLAG antibody
[5] = molecular target: T1, LKB1 (endogenous, HEK293 cells) (human (endogenous in HEK293)) (UniProt Q15831); test: co-IP; cells overexpressing HERC2-DOC or HERC2-RCC2 (control RNAi) or HERC2-HECT (FLAG-tagged or non-tagged); anti-LKB1 antibodies; detection with anti-FLAG or anti-HERC2 antibodies
T1 sequence: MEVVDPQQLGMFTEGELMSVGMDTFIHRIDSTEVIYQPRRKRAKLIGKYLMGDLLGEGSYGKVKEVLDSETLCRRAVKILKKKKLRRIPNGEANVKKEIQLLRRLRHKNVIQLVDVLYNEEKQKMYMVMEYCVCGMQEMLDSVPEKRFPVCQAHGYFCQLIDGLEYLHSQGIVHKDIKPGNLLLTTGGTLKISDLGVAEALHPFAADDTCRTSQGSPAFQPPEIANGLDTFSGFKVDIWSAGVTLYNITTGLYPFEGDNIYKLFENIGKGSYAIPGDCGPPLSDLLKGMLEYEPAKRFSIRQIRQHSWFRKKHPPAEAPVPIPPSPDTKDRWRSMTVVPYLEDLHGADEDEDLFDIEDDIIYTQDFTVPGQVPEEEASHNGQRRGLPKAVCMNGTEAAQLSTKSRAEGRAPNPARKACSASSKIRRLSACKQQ

[6] = molecular target: HERC2-CPH (CPH domain of human HERC2, residues 2547-2640, fusion protein with glutathione S-transferase) (human) (UniProt O95714); test: pull-down; in vitro pull-down with HERC2-NH2 and HERC2-CPH (GST fusion proteins); Supplementary Figure 5A
[7] = molecular target: HERC2-NH2 (amino-terminus of human HERC2, residues 1-199, fusion protein with glutathione S-transferase) (human) (UniProt O95714); test: as above

Molecule: HERC2 (endogenous, human umbilical vein endothelial cells) (from UniProt O95714 1-4834)
- binding [1]: binds

Molecule: HERC2 (experiment with full-length and truncated SIRT1) (from UniProt O95714 1-4834)
- binding [2]: no binding
- binding [3]: binds

Molecule: HERC2-DOC (DOC-3FLAG; HERC2 amino acid 2765 to 2910 with a carboxy-terminal triple-FLAG tag) (from UniProt O95714 2765-2910) (domain or fragment)
- binding [4]: binds

Molecule: HERC2-HECT (HECT-3FLAG; HERC2 amino acid 4419 to 4834 with a carboxy-terminal triple-FLAG tag) (from UniProt O95714 4419-4834) (domain or fragment)
- binding [5]: no binding
- binding [4]: no binding

Molecule: HERC2-HECT domain without any fusion tags (HECT-noTag) (from UniProt O95714 4419-4834) (domain or fragment)
- binding [5]: no binding

Molecule: HERC2-RCC2 (RCC2-3FLAG; HERC2 amino acid 2786 to 3642 with a carboxy-terminal triple-FLAG tag) (from UniProt O95714 2786-3642) (domain or fragment)
- binding [4]: binds

B1: LKB1 (in vitro pull-down experiments) (protein, UniProt Q9WTK7 1-436)
chain: MDVADPEPLGLFSEGELMSVGMDTFIHRIDSTEVIYQPRRKRAKLIGKYLMGDLLGEGSYGKVKEVLDSETLCRRAVKILKKKKLRRIPNGEANVKKEIQLLRRLRHRNVIQLVDVLYNEEKQKMYMVMEYCVCGMQEMLDSVPEKRFPVCQAHGYFRQLIDGLEYLHSQGIVHKDIKPGNLLLTTNGTLKISDLGVAEALHPFAVDDTCRTSQGSPAFQPPEIANGLDTFSGFKVDIWSAGVTLYNITTGLYPFEGDNIYKLFENIGRGDFTIPCDCGPPLSDLLRGMLEYEPAKRFSIRQIRQHSWFRKKHPLAEALVPIPPSPDTKDRWRSMTVVPYLEDLHGRAEEEEEEDLFDIEDGIIYTQDFTVPGQVLEEEVGQNGQSHSLPKAVCVNGTEPQLSSKVKPEGRPGTANPARKVCSSNKIRRLSACKQQ
- binding [6]: no binding
- binding [7]: no binding
